Test results as given in PubChem BioAssay AID662 (National Center for Advancing Translational Sciences (NCATS), 2007).
Among all 71,000 compounds or so, about 1,800 (2.5%) were called active. Inconclusive means that the source gave no clear call. Such entries were picked first, then a sample of the others. Calls follow the shape of the dose curve; as a rule, active = well fitted activation curve with a large enough effect in the signal ratio, with a control signal flat (not every such curve was filed as active); inconclusive = small, poorly fitted or top-dose-only effect, or effect the other way, or a change in a side signal; inactive = flat fitted curve, though single readings scatter; the % refers to the signal ratio. A potency beside an inconclusive call is a rough fit, not a confirmed value.

Experiment: Cell signaling CRE-BLA (Fsk stim); as to activity change, negative = inhibition: % of control where 0% means no effect
Details: CHO CRE-bla reporter (cAMP response element driving beta-lactamase), forskolin EC10, beta-lactamase ratio; activity change, negative = inhibition: at 38.2 µM (top of the series) unless noted
How it was run: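 CRE-bla CHO reporter cells treated with compound titration plus EC10 NKH 477 (water-soluble forskolin), incubated 3 h at 37 °C; CCF4 loading 2 h at room temperature, 460/530 nm emission ratio read, AC50 values derived for positive or negative modulators.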
Potency is read from the fitted curve at half-maximal effect; tags tell the direction and shape of the fitted curve.

Compound | activity change, negative = inhibition | Potency
Cc1ccc(S(=O)(=O)NCCSc2nnc(N)s2)cc1 | inactive | 
O=C(C1CCN(S(=O)(=O)c2cccc3nsnc23)CC1)N1CCn2c1nc1ccccc12 |  | inconclusive: 3.16 µM [falling, partial curve, poor fit]
N#Cc1cc(Cl)c(N2CCOCC2)cc1C#N | inconclusive: 21.7% | 
O=c1c(-c2cc(F)cc(F)c2)nc2cnc(Oc3ccccc3)nc2n1C1CC1 | inconclusive: 19.5% | 
CCOC(=O)c1[nH]c2ccc(OC)cc2c1NC(=O)N1CCOCC1 |  | inconclusive: 25.1 µM [rising, single point]
COc1ccc(OC)c(CCNC(=O)CS(=O)(=O)Cc2nc(-c3ccccc3C)oc2C)c1 | inactive | 
CN1CCN(Cc2cc(COCc3ccccc3)c3cccnc3c2O)CC1 | inactive | 
Cc1cc(N2CCC(N(C)C3CCCC3)CC2)nc2cc(O)ccc12 | inactive | 
C[C@@H](C(=O)Nc1ccc2ccccc2c1)[C@@H]1C[C@@]1(C)[C@@H](NC(=O)Oc1ccc(F)cc1)c1ccccc1 | inactive | 
COc1ccccc1OCC(=O)Nc1oc(-c2ccccc2)c(-c2ccccc2)c1C#N | inactive | 
NC(=O)NC(=O)[C@H]1CCCC[C@@H]1C(=O)O | inactive: -4.16% [at 7.6 µM] | 
Cc1c(C(=O)Nc2ccc(F)cc2)oc2ccc(S(=O)(=O)N3CCCC3)cc12 |  | inconclusive: 5.01 µM [rising, single point]
Cc1ccc2nc(N3CCOCC3)c3nncn3c2c1 |  | inconclusive: 10 µM [rising, partial curve]
Cn1cc(-c2nc3cncnc3n(Cc3ccccc3Cl)c2=O)c2ccccc21 |  | inconclusive: 1 µM [rising, partial curve]
CCOC(=O)N1CCN(S(=O)(=O)c2cccc3ccc(C)nc23)CC1 |  | inconclusive: 6.31 µM [rising, partial curve]
COCc1cc(=O)[nH]c(SCC(=O)Nc2ccccc2)n1 |  | inconclusive: 5.01 µM [rising, single point]
C=CCOC(=O)COc1ccc2c(C)c(C)c(=O)oc2c1 |  | inconclusive: 12.6 µM [rising, single point]
N#Cc1ccc(OCC(=O)N2CCN(S(=O)(=O)c3cccs3)CC2)cc1 | inconclusive: -3.33% | 
CC(C)(C)NC(=O)NC(=O)COc1ccccc1C#N | inactive | 
N/C(=N\c1nc2ccccc2o1)NC(=O)C(Cc1ccccc1)N1C(=O)c2ccccc2C1=O (centres undefined) | inconclusive: 0.435% [cytotoxic] | 
Cc1cc(C)c2cc(C#N)c(NCCCNC(=O)CCC(=O)O)nc2c1 | inconclusive: 16.8% | 
CCC(C)(C)n1nnnc1CN(Cc1ccco1)Cc1cc2cc3c(cc2[nH]c1=O)OCO3 | inactive | 
COc1ccc(N2CCN(CCNC(=O)c3ccc(NC(=O)C4CCCO4)cc3)CC2)cc1 (centres undefined) | inactive | 
CCn1c(=O)c(C(=O)NCc2ccc(OC)cc2)c(O)c2ccccc21 | inconclusive: 26.4% | 
CCOC(=O)N1CCN(C(=O)c2ccc(CNS(=O)(=O)c3ccc(C)cc3)cc2)CC1 | inconclusive: -24.6% | 

Compound | activity change, negative = inhibition | Potency
CCOc1ccc2[nH]c(=O)c(CN(CC3CCCN3CC)C(=O)NCc3ccccc3)cc2c1 (centres undefined) |  | inconclusive: 5.01 µM [rising, single point]
CCC(=O)N1CCN(c2nc(-c3ccccc3)c3c(c2C#N)CCCC3)CC1 | inconclusive: -21.7% [at 7.6 µM] | 
O=C(NCc1cccs1)C1CCCN(S(=O)(=O)c2cccs2)C1 (centres undefined) | inconclusive: 13.1% | 
COc1ccc2[nH]c(C(=O)O)c(CCNC(C)=O)c2c1 | inactive | 
COC(=O)c1cc(Br)c(=O)n(CCN2CCOCC2)c1 |  | inconclusive: 25.1 µM [rising, single point]
COc1cccc(Nc2ncc3nc(-c4ccc(F)cc4)c(=O)n(C)c3n2)c1 |  | inconclusive: 10 µM [rising, partial curve]
O=C1Nc2ccccc2C12OCC1(CO2)COC2(OC1)C(=O)Nc1ccccc12 (centres undefined) | inactive | 
C=CCn1c(SCC(=O)N2CCOCC2)nc2sc3c(c2c1=O)CCCC3 |  | inconclusive: 15.8 µM [rising, partial curve]
O=C(CCC1COc2ccccc2O1)Nc1ccccn1 (centres undefined) |  | active: 10 µM
COc1ccc(CCNS(=O)(=O)c2cccc3nsnc23)cc1OC |  | inconclusive: 15.8 µM [rising, single point]
CC(C)Cn1c(SCC(=O)NC(=O)Nc2ccc3c(c2)OCCO3)nc2ccccc2c1=O | inconclusive: -8.64% | 
O=C(Nc1ccc2nc(-c3ccc(Br)o3)[nH]c2c1)c1cccs1 |  | inconclusive: 3.98 µM [rising, single point]
CCOC(=O)c1c(CN2CCOCC2)n(C)c2cc(Br)c(O)c(CN(C)C)c12 |  | inconclusive: 5.01 µM [rising, single point]
COc1ccc(-n2c(=O)c(-c3cccs3)nc3cnc(N4CCOCC4)nc32)cc1 | inconclusive: 83.3% [fluorescent] | 
COc1ccc(OC)c(-c2cc(C(=O)N3CCN(c4ncccn4)CC3)c3ccccc3n2)c1 |  | inconclusive: 5.01 µM [rising, partial curve]
O=[N+]([O-])c1cc(N(CCO)CCO)ccc1NCCO | inactive | 
CC(C)CNC(=O)COc1ccc2c3c(c(=O)oc2c1)CCC3 | inactive | 
Cc1cnc(NC(=O)CCCSc2nc3ccccc3s2)s1 |  | inconclusive: 12.6 µM [rising, partial curve]
COc1ccc(C(=O)N2CCC3(CCCN(C)C3)CC2)cc1 | inactive | 
O=C(CCCc1nc2ccccc2s1)N1CCN(S(=O)(=O)c2cccs2)CC1 | inconclusive: 19.5% | 
COc1ncc2nc(-c3cccs3)c(=O)n(-c3ccccc3)c2n1 |  | active: 5.01 µM
COc1ccc(C(=O)NCCSCc2ccco2)cc1OC |  | inconclusive: 3.98 µM [rising, single point]
COc1cc(-c2nc3cnccn3c2Nc2ccc3c(c2)OCCO3)ccc1O |  | inconclusive: 12.6 µM [rising, partial curve]
COc1cccc(C(CC(=O)NCc2ccco2)NS(=O)(=O)c2ccc(C)cc2)c1OC (centres undefined) |  | inconclusive: 3.98 µM [falling, partial curve]
